PubChem BioAssay AID1461 (National Center for Advancing Translational Sciences (NCATS), 2008)
About 2,300 (1%) of roughly 220,000 compounds were called active. Inconclusive results, whose numbers are uncertain, are shown with a selection of clear calls. Calls come from the whole dose curve; as a rule, active = well fitted inhibition curve with a large enough effect; inconclusive = small, poorly fitted or top-dose-only effect, or effect the other way; inactive = no such curve, though single readings can be large or run the other way. Potencies of inconclusive entries are left out as doubtful fits.

Molecular target: Neuropeptide S receptor (Homo sapiens) (UniProt Q6W5P4)
Assay: qHTS Assay for Antagonists of the Neuropeptide S Receptor: cAMP Signal Transduction; note: nearly all actives have a fitted effect of over 50% in size
Conditions: CHO-NPSR cells, cAMP TR-FRET, antagonist mode; activity change, negative = inhibition: at 38.3 µM (top of the series) unless noted
% is set by controls: 0 for no effect and ±100 for the full control effect; potency is the fitted concentration of half-maximal effect; tags give direction and shape of the fitted curve.

Chain of UniProt Q6W5P4 (Q6W5P4 whole entry, looked up): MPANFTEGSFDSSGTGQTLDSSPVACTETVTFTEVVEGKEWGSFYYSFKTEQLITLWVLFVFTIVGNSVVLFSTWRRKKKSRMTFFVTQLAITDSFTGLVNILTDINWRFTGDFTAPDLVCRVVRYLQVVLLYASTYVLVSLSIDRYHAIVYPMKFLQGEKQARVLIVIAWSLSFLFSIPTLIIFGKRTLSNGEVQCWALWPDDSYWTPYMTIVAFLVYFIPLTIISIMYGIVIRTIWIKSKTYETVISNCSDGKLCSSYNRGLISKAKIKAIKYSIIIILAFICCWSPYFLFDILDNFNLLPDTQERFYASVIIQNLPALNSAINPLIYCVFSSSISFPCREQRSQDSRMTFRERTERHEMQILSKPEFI

Row | Compound | Potency | activity change, negative = inhibition
1 | Cc1cc(N2CCN(S(=O)(=O)c3ccc(Cl)cc3)CC2)c2ccccc2n1 | inconclusive [inhibitor, single point] | –
2 | Cc1ccc(NC2=C/C(=N/S(=O)(=O)c3cccs3)c3ccccc3C2=O)cc1 | active: 10 µM | –
3 | O=C(CSc1ncnc2c1oc1ccccc12)OCc1ccccc1 | inconclusive [inhibitor, single point] | –
4 | CCOC(=O)CNC(=O)CSc1ncnc2c1cnn2Cc1ccccc1 | inconclusive [inhibitor, single point] | –
5 | COc1ccc(/C=C/C(=O)c2c(C)nc3ccccn23)cc1 | inconclusive [inhibitor, partial curve] | –
6 | CC(=O)Nc1ccc(O)c(-c2nc3ccccc3s2)c1 | – | inactive: 9.65%
7 | CC1CCC(C(C)C)C(OC(=O)C2=C3c4ccccc4S(=O)(=O)N3CC2)C1 (stereo not drawn) | active: 10 µM | –
8 | CC1(C)CC(=O)C=C(NC2CCCCCCC2)C1 | inconclusive [activator, full curve, poor fit] | –
9 | CCOCC(=O)Nc1cccc(C(=O)OCC)c1 | – | inactive: -8.17% [at 46.1 µM]
10 | COc1ccc(-c2c(O)c(C#N)c(-c3ccccc3)n(-c3ccc(OC)cc3)c2=O)cc1 | – | inactive: -43.8%
11 | Cc1ccc(-c2nnn(CC(=O)N(Cc3cccs3)C(C(=O)NC(C)(C)C)c3ccco3)n2)o1 (stereo not drawn) | inconclusive [inhibitor, single point] | –
12 | CCOC(=O)C(=CNc1cc(OC)ccc1-n1cccc1)C(=O)OCC | inconclusive [activator, partial curve, poor fit] | –
13 | COC(=O)c1c(NC(=O)c2nc3ccccc3s2)sc2c1CCN(C(C)=O)C2 | inconclusive [inhibitor, partial curve, poor fit] | –
14 | CC1Cc2ccccc2N1C(=O)CSc1nnc(CSc2ncccn2)n1C (stereo not drawn) | inconclusive [inhibitor, single point] | –
15 | CCCOc1ccc(/C=N/NC(=S)Nc2ccccc2[N+](=O)[O-])c(O)c1 | – | inactive: -16.3%
16 | CCCn1nnc(NC(=O)c2ccccc2Br)n1 | inconclusive [inhibitor, single point] | –
17 | Oc1ccc(Nc2nc(NCC3CCCO3)c3ccccc3n2)cc1 (stereo not drawn) | inconclusive [inhibitor, partial curve, poor fit] | –
18 | CCC(CC)C(=O)Nc1cc(C)c2c(=O)oc3ccccc3c2n1 | inconclusive [inhibitor, single point] | –
19 | CCOc1ccc(S(=O)(=O)NCc2ccco2)c2ccccc12 | – | inactive: -5.56% [at 46.1 µM]
20 | COc1ccc(NC(=O)C2CCN(C(=O)c3cccs3)CC2)cc1OC | inconclusive [inhibitor, partial curve, poor fit] | –
21 | Cc1ccc(-c2nnn(CC(=O)N(c3ccccc3F)C(C(=O)NCC3CCCO3)c3c[nH]c4ccccc34)n2)cc1 (stereo not drawn) | inconclusive [inhibitor, partial curve] | –
22 | O=C(c1cc(-c2ccncc2)nc2ccc(Br)cc12)N1CCN(c2ccccn2)CC1 | inconclusive [inhibitor, single point] | –

Row | Compound | Potency | activity change, negative = inhibition
23 | CCc1ccc(C(C)NC(=O)Cn2cnc3c(=O)n(C)c(=O)n(C)c32)cc1 (stereo not drawn) | – | inactive: -0.911% [at 46.1 µM]
24 | C=CCc1cc(/C=N\NC(=O)CSc2nnc(CCCc3ccc(OC)c(C)c3)o2)cc(OC)c1O | inconclusive [inhibitor, partial curve] | –
25 | O=C(N/N=C/c1ccc(O)c([N+](=O)[O-])c1)C1CC1(c1ccccc1)c1ccccc1 (stereo not drawn) | inconclusive [activator, partial curve] | –
26 | O=C1S/C(=C\c2ccc(N3CCOCC3)o2)C(=O)N1Cc1ccc(F)cc1 | inconclusive [inhibitor, partial curve] | –
27 | CSc1nc(-c2ccco2)nn1C(=O)c1ccc(C)cc1 | – | inactive: 22.1%
28 | COc1ccc(NC(=O)c2ccc(NCCCN3CCOCC3)c([N+](=O)[O-])c2)cc1 | – | inactive: -8.71%
29 | COc1cc2c3c(c1)-c1c(sn(-c4cc(OC)ccc4OC)c1=S)C(C)(C)N3C(=O)C2=O | inconclusive [inhibitor, partial curve, poor fit] | –
30 | Cc1cc(-c2[nH]nc3c2C(c2ccc(Cl)cc2)C(C#N)=C(N)O3)c(C)s1 (stereo not drawn) | inconclusive [inhibitor, single point] | –
31 | COC(=O)c1sccc1NC(=O)C1CC=CCC1C(=O)O (stereo not drawn) | inconclusive [activator, single point] | –
32 | O=C(CCCOc1ccc(Cl)cc1)NCC1CCCO1 (stereo not drawn) | – | inactive: 6.05% [at 46.1 µM]
33 | COc1ccccc1NC(=O)CCN1CCN(CCC(=O)Nc2ccccc2OC)CC1 | inconclusive [inhibitor, full curve, poor fit] | –
34 | CCOc1cc(/C=N/O)cc(Br)c1OCc1ccc(Cl)cc1 | inconclusive [inhibitor, single point] | –
35 | CC1=C/C(=N\OS(=O)(=O)c2ccccc2)C(C(C)C)=CC1=O | active: 10 µM | –
36 | CC(C)(C)c1nnc2sc(SC/C(O)=C(\C#N)c3nc4ccccc4[nH]3)nn2c1=O | inconclusive [inhibitor, single point] | –
37 | COCCCn1cnnc1SCc1nc2sc(C(C)=O)c(C)c2c(=O)[nH]1 | – | inactive: -6.38%
38 | Cc1ccc(CN(C(=O)C(F)(F)F)C(C(=O)NC2CCCCC2)c2ccco2)cc1 (stereo not drawn) | inconclusive [inhibitor, single point] | –
39 | O=C(N/N=C/c1ccc(O)cc1)c1cc(-c2ccc3c(c2)OCO3)n[nH]1 | inconclusive [inhibitor, single point] | –
40 | CCn1c(C(=O)N2CCc3ccccc3C2)cc2sccc21 | inconclusive [inhibitor, full curve, poor fit] | –
41 | CC(C)C(=O)N1CCN(c2ccc(NC(=O)c3ccc([N+](=O)[O-])o3)cc2)CC1 | inconclusive [activator, single point] | –
42 | C(=C\c1ccccc1)/CSc1nnc(-c2ccncc2)n1Cc1ccco1 | – | inactive: 5.82% [at 7.67 µM]
43 | CCn1c(N)c(C(N)=O)sc1=S | – | inactive: -1.83% [at 46.1 µM]
